35 molecules from the supplement of paper PMC4723716 can be followed below.

± gives the uncertainty stated by the source. Whole data set: some 9,900 compounds, median “viability index relative to DMSO control” near 1, cut for the lowest 2% near 0.85. Some of the results follow.

This experiment has as its system Plasmodium falciparum NF54 stage V gametocytes. Briefly: viability index relative to DMSO control (fraction); higher = less gametocyte killing. To be noted: 2.5 µM, library set: Broad Institute DOS, incubation time: 72 h. The method in brief: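 P. falciparum NF54 stage V gametocytes (serum-free medium, 0.75% gametocytemia, 1.25% hematocrit) were exposed to compound at 2.5 µM for 72 hr at 37°C under low oxygen, then stained with MitoTracker Red CMXRos and saponin for one to two hours. Red particles of 20–70 µm2 in one field per well were counted, and the viability index is that count scaled to the plate mean of solvent-only wells.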

With `C[C@@H]1CN([C@H](C)CO)C(=O)c2ccccc2-c2ccccc2CO[C@@H]1CN(C)C(=O)[C@@H]1CCCN1C`, the viability index amounted to 0.9984 ± 0.0065.
In the case of `C[C@H]1CN([C@@H](C)CO)C(=O)c2ccccc2-c2ccccc2CO[C@@H]1CN(C)C(=O)Nc1cccc(C(F)(F)F)c1`, the viability index was 1 ± 0.12.
To `CCCNC(=O)Nc1ccc2c(c1)OC[C@@H](C)N(Cc1cncnc1)C[C@H](C)[C@@H](OC)CN(C)C2=O` belongs 1.05 ± 0.075; to `CN(C)C(=O)C[C@H]1C[C@H]2c3cc(NC(=O)Nc4ccc(F)cc4)ccc3O[C@H]2[C@H](CO)O1`, 1.05 ± 0.073.
To `COCc1cn(CC[C@H]2CC[C@H](NC(=O)Nc3c(C)noc3C)[C@H](CO)O2)nn1` belongs 1.05 ± 0.052; to `COCC(=O)N1[C@H](CO)[C@H](c2ccccc2C2=CCCC2)[C@@H]1C#N`, 1.16 ± 0.12; to `CO[C@@H]1CN(C)C(=O)c2cc(NS(=O)(=O)CC(F)(F)F)ccc2OC[C@@H](C)NC[C@@H]1C`, 1.01 ± 0.12.
To `O=C(C[C@@H]1C[C@H]2c3cc(NC(=O)c4ccc5c(c4)OCO5)ccc3O[C@H]2[C@H](CO)O1)NCc1ccc(Oc2ccccc2)cc1` belongs 1.07 ± 0.055; to `CC(C)C#Cc1ccc([C@@H]2[C@@H](CO)N3C(=O)CN(C(=O)NC4CCCC4)C[C@@H]23)cc1`, 1.07 ± 0.037.
The molecule `CN1C(=O)c2cc(NC(=O)Nc3ccccc3Cl)ccc2OC[C@@H]2O[C@@H](CC(=O)NCCCN3CCOCC3)CC[C@H]21` had a viability index of 1.15 ± 0.13.
In turn, `C[C@H](CO)N1C[C@H](C)[C@H](CN(C)Cc2ccc(Oc3ccccc3)cc2)OCc2ccccc2-c2ccccc2C1=O` returned a viability index of 0.931 ± 0.045.
Molecule `C[C@@H]1CN([C@H](C)CO)C(=O)c2ccccc2-c2ccccc2CO[C@@H]1CN(C)C(=O)Nc1ccc(-c2ccccc2)cc1` yielded a viability index of 0.987 ± 0.069.
To `O=C(C1CCOCC1)N1[C@@H](CO)[C@@H](c2ccccc2)C12CN(CCC(F)(F)F)C2` belongs 0.992 ± 0.1; to `Cc1ccc(S(=O)(=O)N2CC[C@@H]3[C@@H](CO)N(C)c4ccc(-c5ccccc5F)cc4[C@@H]32)cc1`, 1.07 ± 0.023; to `C[C@H]1CN([C@@H](C)CO)C(=O)c2cc(NC(=O)Nc3cccc4ccccc34)ccc2O[C@H]1CN(C)S(=O)(=O)c1cccs1`, 0.911 ± 0.088.
To `C[C@@H]1CCCCO[C@@H](CN(C)C(=O)Cc2ccccc2)[C@@H](C)CN([C@H](C)CO)C(=O)c2cc(NS(C)(=O)=O)ccc2O1` belongs 1.04 ± 0.033.
On to `COc1ccc2c3c([C@H](CO)N(C[C@]33CN(C3)C(=O)CN3CCOCC3)C(=O)Nc3ccc(F)cc3)n(C)c2c1`, for which the viability index stood at 1.01 ± 0.075.
To `C[C@@H]1CN([C@H](C)CO)C(=O)c2cc(NS(C)(=O)=O)ccc2O[C@H]1CN(C)C` belongs 1.04 ± 0.06; to `Cc1cccc(S(=O)(=O)N2C[C@@H]3N[C@H](C2)[C@H]3c2ccc(-c3cncnc3)cc2)c1`, 1.01 ± 0.045.
As for `O=C(C[C@@H]1CC[C@@H]2NC[C@H](O)COC[C@H]2O1)Nc1ccc(-c2ccccc2)cc1`, the viability index is 1.09 ± 0.096.
To `C[C@@H](NC(=O)[C@@H]1[C@@H](CO)[C@@H]2Cn3c(cccc3=O)[C@H]1N2C(=O)C1CCC1)c1ccccc1` belongs 1.07 ± 0.025.
To `O=C(c1ccc(F)cc1)N1C[C@@H]2N[C@H](C1)[C@@H]2c1ccc(-c2cccnc2)cc1` belongs 1.06 ± 0.034; to `CCCC#Cc1ccc([C@H]2[C@@H](CO)N(C(=O)NC(C)C)[C@H]2CNC(C)=O)cc1`, 0.979 ± 0.044.
To `CC(C)NC(=O)Nc1ccc2c(c1)C(=O)N([C@H](C)CO)C[C@@H](C)[C@@H](CN(C)C(=O)C1CCCCC1)OCCCC[C@H](C)O2` belongs 1.04 ± 0.028.
`O=C(C[C@H]1C[C@@H]2c3cc(NC(=O)c4ccc5c(c4)OCO5)ccc3O[C@@H]2[C@H](CO)O1)NCCN1CCCCC1`: the viability index was 1.06 ± 0.015.
To `CN1CCN(C(=O)C[C@H]2C[C@@H]3c4cc(NS(C)(=O)=O)ccc4O[C@@H]3[C@@H](CO)O2)CC1` belongs 1.07 ± 0.02.
To `Cc1ccccc1-c1ccc([C@H]2[C@H](CO)N3C(=O)CN(C(=O)Nc4cccc(F)c4)C[C@@H]23)cc1` belongs 1.02 ± 0.042.
In turn, `CCCNC(=O)N1C[C@@H]2N[C@H](C1)[C@@H]2c1ccc(-c2ccc(OC)cc2)cc1` had a viability index of 1.1 ± 0.12.
To `C[C@@H]1CN([C@H](C)CO)C(=O)c2ccccc2-c2ccccc2CO[C@H]1CN(C)S(=O)(=O)c1cn(C)cn1` belongs 0.944 ± 0.034; to `Cn1cnc(CCNC(=O)C[C@@H]2CC[C@@H]3[C@H](COC[C@@H](O)CN3C(=O)Nc3ccc(C(F)(F)F)cc3)O2)c1`, 1.06 ± 0.069; to `CC(=O)N1[C@H](CO)[C@H]2c3ccccc3N(C(=O)c3ccc(F)cc3)C[C@H]21`, 0.969 ± 0.025.
`CO[C@@H]1CN(C)C(=O)c2cc(NS(C)(=O)=O)ccc2OC[C@H](C)N(Cc2cncnc2)C[C@@H]1C` gave a viability index of 1.06 ± 0.07.
To `O=C(C[C@@H]1CC[C@H](NC(=O)CN2CCOCC2)[C@@H](CO)O1)NC1CCC1` belongs 1.05 ± 0.038.
To `C/C=C/c1ccc([C@@H]2[C@@H](CO)N3C(=O)CN(C(=O)Nc4ccc(F)cc4)C[C@@H]23)cc1` belongs 1.02 ± 0.065; to `COc1ccccc1CN1[C@@H]2CNC[C@H]1[C@H]2c1ccc(-c2cccc(C#N)c2)cc1`, 1.06 ± 0.049.
